In all, about 48,000 compounds went through this assay and about 120 (0.25%) were called active. About 4% were inconclusive and are not listed. Calls follow the shape of the dose curve; as a rule, active = well fitted activation curve with a large enough effect; inconclusive = small, poorly fitted or top-dose-only effect, or another doubt; inactive = no such curve, though single readings can be large or run the other way. Some of the results follow.
test: Primary qHTS for Identification of Small Molecule Activators of Huntingtin-Antisense Promoter Activity; details: HEK293 HTT-AS promoter firefly luciferase reporter (activity 0% = vehicle and -100% = no light), 24 h; series mostly up to 57.5 µM; activity change, positive = activation: at the top concentration; also: nearly all actives have a fitted effect of over 55% in size
Procedure, shortened: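 HEK293 luciferase promoter-reporter cells (2,500/well) plated 24 h, then compounds added at up to 57.5 uM final for 24 h at 37 °C. Firefly luminescence by Dual-Glo, normalized to vehicle (0%) and zero RLU (-100%).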

Activity change, positive = activation, inactive:
COc1ccc(CCNC(=O)c2cc(Sc3cccc(Cl)c3)nc3ccccc23)cc1OC -36.8%
COc1ccc2c(c1)NC(c1ccc(OCC(C)C)cc1)=NC(c1ccncc1)=N2 -3.66%
CCOc1ccc(-c2n[nH]c3c2C(c2ccccc2OC)N(c2ccc(Br)cc2)C3=O)cc1 (centres undefined) -13%
COc1ccccc1N1CCN(C(=O)c2oc3ccccc3c2NC(=O)C(C)Oc2ccccc2)CC1 (centres undefined) -1.43%
O=C(Nc1cc(Cl)cc(Cl)c1)c1ccc(F)c(S(=O)(=O)N2CCCCCC2)c1 -13.1%
Cc1ccc(C(C)C)c(OCCn2cc(C(=O)c3ccco3)c3ccccc32)c1 -34%
CCOc1ccc(CNC(=O)c2cc3c(=O)n(C)c4ccccc4c3s2)cc1 -8.88%
O=C(c1ccc2c(c1)OCCO2)N(Cc1cccnc1)c1nc2ccc(F)cc2s1 -38.2%
Cc1ccc(NC(=O)Cn2c(=O)n(Cc3ccco3)c(=O)c3ccccc32)cc1 -22.7%
Cc1ccc(NC(=O)C2CCCN2S(=O)(=O)c2cccc3cccnc23)cc1 (centres undefined) -15.2%
COc1ccc(-c2ccnc3c(-c4ccc(F)cc4)c(C)nn23)cc1OC -12.1%
CC1CN(C(=O)N2CCC(C(=O)NC3CCCCCC3)CC2)c2cc(Cl)ccc2O1 (centres undefined) -4.41%
Cc1cc(C)n2nc(CNS(=O)(=O)c3ccc(Cl)cc3)nc2n1 -9.84%
O=C(Cn1cc(SCc2cccc(Cl)c2)c2ccccc21)N1CCOCC1 31.5%
O=c1[nH]c(SCc2ccc(F)cc2)nc2c1CCCC2 -0.696%
COc1cc(C(=O)NC2CC(=O)N(c3cccc(F)c3)C2)cc(OC)c1OC (centres undefined) 3.01%
CC(C)c1ccc(OCc2cc(=O)n3c4c(sc3n2)CCCC4)cc1 -15.5%
CCc1ccc(Nc2cc(C)nc3nc(Cc4ccc(Cl)cc4)nn23)cc1 -44.4%
CCOC(=O)c1ccc(CSc2nnc3cc(C)c4ccccc4n23)cc1 -19.8%
COc1ccccc1NC(=O)CN(c1ccc(C(C)C)cc1)S(=O)(=O)c1c(C)noc1C -26.7%
O=C(NC1CCCCC1)c1ccc2c(c1)sc1nc(-c3ccccc3)cn12 -14.4%
N#Cc1ccc(C(=O)N2CCN(c3nc4ccc(F)cc4s3)CC2)cc1 -23.7%
COc1ccc(-c2oc3ncn4nc(-c5ccc(Cl)cc5)nc4c3c2-c2ccc(OC)cc2)cc1 -9.43%
COc1cc2c(=O)n(Cc3ccccc3)c(=O)n(CC(=O)Nc3cc(C(F)(F)F)ccc3Cl)c2cc1OC -6.53%
CN1C(C(=O)Nc2ccc(OC(F)(F)F)cc2)=CC(c2ccc3c(c2)OCO3)=NS1(=O)=O -27.1%
O=C(Cn1cccc1C(=O)c1ccccc1)NCc1ccc(F)cc1 13%
CCN(CC)c1ccc(NS(=O)(=O)c2ccc3c(c2)CCCN3C(C)=O)c(C)c1 -24.8%
COC(=O)c1cc2oc(C)cc2n1Cc1c(C)cc(C)cc1C 7.29%
COc1ccc(C2c3c(n(C)c4ccccc34)C(=O)N2CC(=O)Nc2ccc(Cl)cc2)cc1 (centres undefined) -29.3%
CCc1ccc(N2CCn3c2nc2c3c(=O)n(Cc3cccc(C)c3)c(=O)n2C)cc1 -6.33%
CCOC(=O)c1c(C)oc2ncnc(NCCc3ccccc3)c12 -14.2%
COc1cc2nc(SCC(=O)Nc3ccc(F)cc3)n3nc(CCn4c(C)nc5ccccc54)nc3c2cc1OC 5.73%
Cc1ccc(OC(=O)c2snnc2C)cc1C -4.38%
Cc1ccc(NC(=O)C(=O)NCC(c2ccc3c(c2)OCO3)N2CCOCC2)c(C)c1 (centres undefined) -5.81%
O=C(CSc1ncc2c(n1)-c1ccccc1N(Cc1ccc(F)cc1)S2(=O)=O)c1ccc(Br)cc1 -17.4%
CCCN1CCN(CCNC(=O)Nc2cc(OC)cc(OC)c2)CC1 2.91%
CCCCNC(=O)c1ccc2c(c1)ncn2-c1cc(OC)ccc1OC -3.16%
Cc1c(Cl)cccc1-n1ncc(C(=O)Nc2ccc(Br)cc2F)c1C1CCNCC1 -7.89%
O=C(Nc1ccccc1F)c1ccc2c(Cl)c3c(nc2c1)CCC3 -68.5%
CCOc1ccccc1CNCc1cccn1-c1nnc(N2CCN(c3ccccc3)CC2)s1 -46.3%
COC(=O)c1ccc(NC(=O)CCn2cnnn2)cc1 -5.03%
CCN(CCCNC(=O)c1nn(-c2ccc(OC)cc2)c(=O)c2c1c1ccccc1n2C)c1ccccc1 -2.82%
CCc1cccc(NC(=O)CCNS(=O)(=O)c2cccc3nonc23)c1 -27.1%
COc1ccccc1NC(=O)C1=C(C)Nc2nnnn2C1c1ccc(C(F)(F)F)cc1 (centres undefined) -19.2%
CN[C@@H](C)C(=O)N[C@H]1CCCC[C@H]2CC[C@@H](C(=O)N[C@@H](c3ccccc3)c3cn(CCCCc4ccc(CCCCn5cc([C@@H](NC(=O)[C@@H]6CC[C@@H]7CCCC[C@H](NC(=O)[C@H](C)NC)C(=O)N76)c6ccccc6)nn5)cc4)nn3)N2C1=O -2.19%
COC(=O)c1ccc(NC(=O)c2nc(-c3ccc(Cl)cc3)n3c2CCCCC3)cc1 -39.8%
O=C(Cn1nc(C(F)(F)F)c2c1CCCC2)Nc1ccc(Br)cc1 -46.1%
CCCCOC(=O)CC(CC(=O)OCCCC)(OC(C)=O)C(=O)OCCCC -4.25%
Cc1ccc(-n2nnnc2CNC(=O)c2cc(C(F)(F)F)cc(C(F)(F)F)c2)cc1C -44.5%
COc1cccc(CNC(=O)COc2cc(=O)n(C)c3ccccc23)c1 -7.91%
COc1ccc(S(=O)(=O)Nc2ccc(-c3cn4c(C)csc4n3)cc2)cc1 -14.2%
Cc1ccc(N2CCN(S(=O)(=O)c3cccc4ccccc34)CC2)cc1Cl -8.29%
COc1ccccc1S(=O)(=O)Cc1ccc(C(=O)NCc2ccc(Cl)cc2)o1 -27.8%
O=C(Nc1cccc(C(F)(F)F)c1)c1cc(CN2CCOCC2)on1 -13.2%
CCc1ccc(NC(=O)[C@H](Cc2ccccc2)N2Cc3ccccc3C2=O)cc1 -10.3%
CCOc1ccc(S(=O)(=O)c2c(C(=O)c3ccc(CC)cc3)cnc3ccc(C)cc23)cc1 -15.4%
CN(C)CCNC(=O)C1CCN(Cc2cc3ccccc3n2Cc2ccccc2)CC1 -31%
C=CCNC1=C2C[C@@H](C)C[C@H](OC)[C@@H](O)[C@@H](C)C=C(C)[C@H](OC(N)=O)[C@@H](OC)C=CC=C(C)C(=O)NC(=CC1=O)C2=O -54.2%
COc1cc(NC(=O)CCc2c(C)nn(-c3ccc4nnc(C)n4n3)c2C)cc(OC)c1OC -11.2%
CCOc1ccc(N2CC(NC(=O)c3cccs3)CC2=O)cc1 (centres undefined) -5.03%
CCCN(CCC)CCCNC(=O)c1cc2c(-c3ccc(OC)c(OC)c3)nn(C)c2s1 -2.06%
Cc1ccc(S(=O)(=O)n2nc(-c3ccccc3)nc2NCc2ccc(Cl)cc2)cc1 -19.4%
O=C1CC(c2nc(-c3ccc(Cl)cc3)no2)CN1c1ccc2c(c1)OCCO2 (centres undefined) -16.8%
O=C(CSc1nc2c([nH]c3ccccc32)c(=O)n1-c1ccccc1)N1CCc2ccccc21 -15.9%
Cc1csc(NC(=O)c2sc3nc4c(c(C(F)(F)F)c3c2N)CCC4)n1 -89.1%
CC(C)(C)CC(=O)NCC(c1ccc2c(c1)OCO2)N1CCN(c2ccccc2)CC1 (centres undefined) -15.9%
O=C(NCc1cccc(Br)c1)c1cnn(-c2ccc(F)cc2)c1-n1cccc1 -31.1%
CC(=O)c1ccc(NC(=O)c2cc(-c3ccc(C)s3)nc3ccccc23)cc1 -2.14%
CCC(C)NC(=O)Cn1c(=O)n(CCCCCC(=O)NCc2ccccc2Cl)c(=O)c2sccc21 (centres undefined) -22.7%
O=C(CSc1nccn1-c1ccc(Cl)cc1)Nc1ccc(Cl)c(Cl)c1 -15.6%
COc1cc(NC(=O)N2c3ccccc3Sc3ccccc32)cc(OC)c1 -28.6%
CCOC(=O)N1CCc2c(sc3c2c(=O)n(CCc2ccccc2)c(=O)n3CC(=O)Nc2ccc(C)cc2)C1 -1.84%
CCOC(=O)c1ccc(NC(=O)CSc2ccc3ccccc3n2)cc1 -3.49%
COc1ccccc1C(=O)NCC(c1cccnc1)N1CCc2ccccc2C1 (centres undefined) -16.5%
CN1CCc2c(sc(NC(=O)CSc3ccccc3)c2-c2nc3ccccc3s2)C1 -9.01%
CCCOC(=O)c1c(NC(=O)C(C)Sc2nc(-c3ccccc3)cc(C(F)(F)F)n2)sc(C(=O)N(C)C)c1C (centres undefined) -36.8%
Cc1cccc(N2CCN(C(=O)CN3C(=O)CSc4c3c(C)nn4-c3ccccc3)CC2)c1C -4.42%
O=C(Nc1ccc(Oc2ccccc2)cc1)C1CCN(S(=O)(=O)c2ccc(Cl)cc2)CC1 2.68%
CCOc1ccc(CCNC(=O)c2ccc3c(c2)c(C)c(C)n3Cc2ccccc2)cc1OCC -32.4%
COc1ccccc1NC(=O)CCCc1nnc2n(C)c(=O)c3sccc3n12 1.97%
CCOC(=O)c1cc(S(=O)(=O)NCc2ccc(C)cc2)[nH]n1 -11.7%
COc1ccc(CCN2C(=O)c3[nH]nc(-c4ccccc4O)c3C2c2ccc(OC)cc2)cc1 (centres undefined) -35.3%
O=S(=O)(c1ccc(Cl)cc1)c1nc(-c2ccco2)oc1SCc1ccc(F)cc1 -22.5%
C[C@]1(Cn2ccnn2)[C@H](C(=O)O)N2C(=O)C[C@H]2S1(=O)=O -3.63%
CSc1ccc(CCNC(=O)CCn2c(=O)c3cccn3c3ccc(F)cc32)cc1 -11.5%
CCOC(=O)c1c(NC(=O)c2cc3ccccc3c(=O)o2)sc2c1CCC(C)C2 (centres undefined) 0.162%
COc1ccc(-n2c(=O)c3ccccc3n(CC(=O)Nc3ccccc3OC)c2=O)cc1 -14.3%
COc1cc(OC)cc(C(=O)Nc2cc3c(cc2N2CCCC2)n(C)c(=O)c(=O)n3C)c1 -5.71%
Cc1ccc2c(CC(=O)Nc3c(C(=O)c4ccc(C)c(F)c4)oc4ccccc34)coc2c1 9.17%
CCOc1ccc(NC(=O)c2cnc3ccccn3c2=O)cc1 7.17%
CC(CN(C)C)C(C)(O)Cc1ccc(Cl)cc1 (centres undefined) -7.56%
CCN(CC)CCCCNc1ncc2cc(-c3cc(OC)cc(OC)c3)c(NC(=O)NC(C)(C)C)nc2n1 -10.2%
CC(=O)c1ccc(NC(=O)c2cnn(-c3cccc(F)c3)c2-n2cccc2)cc1 -19.5%
COc1ccc(S(=O)(=O)c2c(O)c3ccc(C(=O)NCc4ccc(F)cc4)cc3[nH]c2=O)cc1 -6.2%

Reference: PubChem BioAssay AID1508624 (National Center for Advancing Translational Sciences (NCATS), 2021)
